# Active and inactive are the calls of the source. No cut-off for these calls is given here.
# Tested on: Influenza B virus
# Assay: Antiviral activity against influenza B virus (B/Lee/1940) infected in hen chorioallantoic membrane assessed as inhibition of viral infectivity after 72 hrs
compound,measurement,value
COc1cc(/C=C/C(=O)OCCC(C)C)ccc1O [ISOPENTYL FERULATE],Activity,inactive

# Source: ChEMBL document CHEMBL1159009, “Anti-influenza virus effect of some propolis constituents and their analogues (esters of substituted cinnamic acids)” (J Nat Prod, 1992)
